# Laboratory results from PubChem BioAssay AID588855 (National Center for Advancing Translational Sciences (NCATS), 2011).
# “And” between values parts separate entries of the source, which are not always exact repeats. Equal values may be shown once. Out of some 410,000 compounds screened, about 5,000 (1.2%) were called active. Inconclusive means that the source gave no clear call. Such entries were picked first, then a sample of the others. Calls come from the whole dose curve; as a rule, active = well fitted inhibition curve with a large enough effect; inconclusive = small, poorly fitted or top-dose-only effect; inactive = no such curve, though single readings can be large or run the other way. Potencies of inconclusive entries are doubtful fits and often do not repeat.
# Assay: qHTS for Inhibitors of TGF-b; note: nearly all actives have a fitted effect of over 65% in size
# Conditions: HepG2 CAGA-GFP TGF-b/SMAD3 reporter, GFP fluorescence, 18 h, TGF-beta stimulated, 500 pg/mL final; series mostly up to 46.1 µM; activity, negative = inhibition: at the top concentration
# In short: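 Cell-based qHTS in HEPG2 carrying a CAGA-GFP Smad reporter; compounds added before 500 pg/mL final TGF-beta, 18 h incubation at 37 degrees C, GFP fluorescence quantified per cell by imaging cytometry.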
# % is set by controls: 0 for no effect and ±100 for the full control effect; potency is the fitted concentration of half-maximal effect; tags give direction and shape of the fitted curve.
SMILES,Potency,"activity, negative = inhibition"
COc1cc(C(=O)Nc2nc(C)c(Cc3ccc4c(c3)OCO4)s2)cc(OC)c1OC,"inconclusive: 11.2 µM [inhibitor, partial curve, poor fit]",–
Cc1ccccc1CN1C(=O)C(O)(CC(=O)c2ccccc2)c2cc(Cl)ccc21 (centres undefined),"inconclusive: 12.6 µM [inhibitor, partial curve, poor fit]",–
Cc1ccc(C)c(S(=O)(=O)N2CCN(C(=O)c3cccnc3)CC2)c1,–,inactive: -14.2%
COc1cc2nc(Nc3ccc(C)c(Cl)c3)nc(N)c2cc1OC,"inconclusive: 35.5 µM [inhibitor, single point]",–
Cc1ccccc1OCc1n(CC(=O)OC2CC(C)CCC2C(C)C)c2ccccc2[n+]1C (centres undefined),active: 12.6 µM and active: 7.94 µM,–
CN(Cc1ccccc1)C(=O)c1[nH]cnc1C(=O)Nc1ccc(Br)cc1F,"inconclusive: 17.8 µM [inhibitor, single point]",–
CCOC(=O)OCC(=O)C1(O)CCC2C3CCC4=CC(=O)CCC4(C)C3C(O)CC21C (centres undefined),–,inactive: -4.32%
O=C(Nc1ccc2ccccc2c1)c1ccc(Cl)cc1Cl,"inconclusive: 0.126 µM [inhibitor, full curve, poor fit]",–
CC(=O)N(CCC(Cc1ccccc1)c1ccc2c(c1)OCO2)Cc1ccccc1F (centres undefined),–,inactive: 2.37%
CC(=O)Nc1ccc(-c2csc(Nc3ccccn3)n2)cc1,"inconclusive: 12.6 µM [inhibitor, single point]",–
Cc1cccc(N2CCN(C(=O)c3cc4n(n3)C(C(F)(F)F)CC(c3ccco3)N4)CC2)c1C (centres undefined),"inconclusive: 35.5 µM [inhibitor, single point]",–
COc1cc(-c2nc3cc(C)ccn3c2NC2CCCCC2)ccc1-c1ccc(C(C)=O)cc1,"inconclusive: 15.8 µM [inhibitor, single point]",–
CCOc1ccccc1-n1c(SCC(=O)Nc2ccc(CC)cc2)nc2n[nH]c(C)c2c1=N,"inconclusive: 2.82 µM [inhibitor, single point]",–
Cc1nc(NC(=O)c2ccco2)sc1C(=O)Nc1ccc(Br)cc1,"inconclusive: 0.708 µM [inhibitor, full curve, poor fit]",–
Cc1ccccc1NC(=O)CSc1nc2ccc(NC(=O)c3ccccc3)cc2s1,"inconclusive: 22.4 µM [inhibitor, partial curve, poor fit]",–
CCn1c(SCC(=O)Nc2nc3c(s2)CCCC3)nnc1-c1ccccc1,"inconclusive: 0.447 µM [inhibitor, full curve, poor fit]",–
COc1ccccc1OCCn1c(C(C)Oc2ccccc2)nc2ccccc21 (centres undefined),active: 11.2 µM,–
CSc1ccc(S(=O)(=O)NCc2ccccc2C)cc1,–,inactive: 7.57%
COc1ccccc1-c1nnc(SCC(N)=O)o1,"inconclusive: 11.2 µM [inhibitor, partial curve, poor fit]",–
CCOC(=O)c1ccc(S(=O)(=O)N2CCN(CC(=O)NC(=O)NC3CCCCC3)CC2)cc1,–,inactive: -12.7%
Cc1cc(C(=O)OCC(=O)c2cccc([N+](=O)[O-])c2)c2ccccc2n1,"inconclusive: 35.5 µM [inhibitor, single point]",–
COc1ccc(NC(=O)CSc2nnc(Cc3cccn3C)n2CCc2ccccc2)cc1OC,"inconclusive: 8.91 µM [inhibitor, partial curve, poor fit]",–

SMILES,Potency,"activity, negative = inhibition"
COc1cc(C(=O)N2CCN(Cc3ccccc3C(F)(F)F)CC2)cc(OC)c1OC,"inconclusive: 35.5 µM [inhibitor, single point]",–
O=C1NC(Cc2ccc(O)cc2)c2nc3cc(Cl)ccc3c(=O)n2-c2cc3ccccc3cc21 (centres undefined),"inconclusive: 2.82 µM [inhibitor, full curve, poor fit]",–
Cc1cccc(NC(=O)CC2C(=O)NCCN2C(=O)Nc2ccc(Cl)cc2)c1 (centres undefined),"inconclusive: 11.2 µM [inhibitor, partial curve]",–
CCCn1c(=N)n(CC(O)COc2ccc(C)cc2)c2ccccc21 (centres undefined),"inconclusive: 35.5 µM [inhibitor, single point]",–
CN(Cc1ccccc1)S(=O)(=O)c1ccc(Cl)c(C(=O)NCc2cccnc2)c1,–,inactive: -28.8%
CC(C)c1ccc(/C=N/NC(=O)CN(c2cccc(Cl)c2Cl)S(C)(=O)=O)cc1,"inconclusive: 35.5 µM [inhibitor, single point]",–
CCOc1ccc(/C=C/c2nc(C#N)c(NC3CCCCC3)o2)cc1,–,inactive: -19.6%
Cc1ccc(S(=O)(=O)c2c(C)nn(C(C)(C)C)c2OC(=O)CC(C)C)cc1,"inconclusive: 17.8 µM [inhibitor, partial curve, poor fit]",–
Cc1nn(-c2ccccc2)c(N)c1C1(O)C(=O)N(C)c2ccccc21 (centres undefined),"inconclusive: 35.5 µM [inhibitor, single point]",–
COc1ccc(C(=O)O/N=C(\C)c2nccs2)cc1,–,inactive: 0.166%
O=C(NCc1ccncc1)c1csc([C@@H]2C[C@H](O)[C@@H](CO)O2)n1,–,inactive: 8.66%
CC(C)(C)OC(=O)N1CCC(c2c(C(=O)NCCN3CCCC3)cnn2-c2ccc(Cl)cc2)CC1,"inconclusive: 25.1 µM [inhibitor, partial curve, poor fit]",–
CN(Cc1ccccc1)C(=O)c1ccc(NC(=O)Cc2cccc(NC(=O)C3CCN(C(=O)C4CCCCC4)CC3)c2)cc1,"inconclusive: 35.5 µM [inhibitor, single point]",–
N#C/C(C(=O)N1CCOCC1)=c1/s/c(=C\c2ccccn2)c(=O)n1-c1ccccc1,–,inactive: -2.8%
Cc1ccc(-n2ccnc(NCCc3ccc(S(N)(=O)=O)cc3)c2=O)c(C)c1,"inconclusive: 35.5 µM [inhibitor, single point]",–
CCN(CC)S(=O)(=O)N1CCC(C(=O)NCCC2=CCCCC2)CC1,–,inactive: -5.77%
CC(=O)c1cc(-c2ccccc2)n(CCC(=O)Nc2ccc(C(C)C)cc2)c1C,"inconclusive: 1.78 µM [inhibitor, full curve, poor fit]",–
CC1=N/C(=C\c2ccc([N+](=O)[O-])cc2)C(=O)N1c1ccc(Br)c(C)c1,"inconclusive: 0.631 µM [inhibitor, full curve, poor fit]",–
COc1ccccc1Oc1ccc(S(=O)(=O)N2CCCC2)cc1,"inconclusive: 35.5 µM [inhibitor, single point]",–
O=Cc1ccc(N2N=C(c3ccccc3)CC2c2ccccc2)cc1 (centres undefined),"inconclusive: 35.5 µM [inhibitor, single point]",–
COc1ccc(CN2CCCC(C(=O)c3ccc(SC)cc3)C2)cc1Cn1cccn1 (centres undefined),"inconclusive: 35.5 µM [inhibitor, single point]",–
CC(C)(C)OC(=O)N1CCC(C(=O)N2CCC[C@H]2C(=O)O)CC1,"inconclusive: 35.5 µM [inhibitor, single point]",–

SMILES,Potency,"activity, negative = inhibition"
O=C(NC1CCCCC1)C(CCc1ccccc1)N1CCc2ccccc2C1 (centres undefined),active: 10 µM,–
COc1ccc(-c2cc(C(F)(F)F)n3nc(C(=O)O)c(Cl)c3n2)cc1OC,–,inactive: 13.5%
CC(C)C(c1nnnn1CCc1ccccc1)N1CCN(C(=O)c2ccco2)CC1 (centres undefined),"inconclusive: 2.82 µM [inhibitor, single point]",–
O=C(NCc1ccc(F)cc1)c1cc(C2CCCN(C(=O)c3cccs3)C2)on1 (centres undefined),–,inactive: 2.76%
C[C@H](N)C(=O)N1CCC(C(=O)N[C@@H](Cc2ccccc2)C(=O)Nc2ccc(F)cc2)CC1,–,inactive: -1.27%
Cc1cccc(CS(=O)(=O)c2ncc(Cl)c(C(=O)Nc3nc4ccc(F)cc4s3)n2)c1,"inconclusive: 5.62 µM [inhibitor, single point]",–
Cn1nnnc1SCCNCc1ccccc1OCc1ccc(Cl)cc1Cl,"inconclusive: 12.6 µM [inhibitor, partial curve, poor fit]",–
CSc1cccc(NC(=O)Cn2nc(C)c3sc4ccccc4c3c2=O)c1,"inconclusive: 15.8 µM [inhibitor, single point]",–
COc1cc(CN2CCCC(C(=O)c3ccccc3SC)C2)cc(OC)c1 (centres undefined),"inconclusive: 22.4 µM [inhibitor, single point]",–
COc1ccc(NC(=O)CCCCCn2nnc3ccccc3c2=O)cc1OC,–,inactive: 0.0963%
CC(=O)c1ccc(C(=O)N(Cc2cccnc2)c2nc3c(Cl)cccc3s2)cc1,"inconclusive: 22.4 µM [inhibitor, single point]",–
CCOCCCNC(=O)Nc1cc(C(=O)NCc2ccc(C(C)C)cc2)ccc1N1CCCC1,"inconclusive: 12.6 µM [inhibitor, partial curve]",–
CC(C)OCCCN(C)C1CCN(S(=O)(=O)c2csc(C(N)=O)c2)CC1,"inconclusive: 0.224 µM [inhibitor, full curve, poor fit]",–
O=C(CCS(=O)(=O)c1ccccc1)Nc1cccc(-c2nc3ccccc3s2)c1,"inconclusive: 15.8 µM [inhibitor, single point]",–
CCN1CCc2c(sc(NC(=O)c3cc4ccccc4cc3OC)c2C(N)=O)C1,"inconclusive: 35.5 µM [inhibitor, single point]",–
CCCCCn1c(=O)c2ccccc2n2c(CCl)nnc12,"inconclusive: 25.1 µM [inhibitor, single point]",–
O=C(N/N=C/c1cc(Br)ccc1O)c1ccccc1Cl,"inconclusive: 7.08 µM [inhibitor, partial curve]",–
CCOC(=O)C1(Cc2cccc(F)c2)CCN(Cc2cnn(CC)c2)CC1,"inconclusive: 35.5 µM [inhibitor, single point]",–
Cc1ccccc1CC1(CO)CCCN(C(=O)c2ccc(F)cc2)C1 (centres undefined),–,inactive: -12.1%
COc1ccc(CN2CCN(S(=O)(=O)c3ccc(NC(C)=O)cc3)CC2)cc1OC,"inconclusive: 12.6 µM [inhibitor, single point]",–
